Laboratory results taken from PMC12040169 (PLOS Biology, 2025).
The list shows a part of the results.

test system: T1, C. trachomatis L2/434/Bu expressing GFP (CTL2-GFP); design: species or system HeLa; C. trachomatis total inclusion area by high-content imaging, normalised to DMSO; details: total inclusion area; 28.5 h, 10 µM; inhibitor
T1 construct: L2/434/Bu GFP intracellular growth in HeLa cells
Outline: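 Post-fluorescence-read fixation, DNA staining with Hoechst and high-content imaging; GFP inclusion area and number per well, and nuclei counts, used as proxies for bacterial growth and host viability.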

Point of comparison: `IC1COC(c2ccccc2)OC1` (centres unmarked) [CBK021109], “% of control remaining” value 67.5829. Against it:
- O=C(/C=C/c1c(Cl)cccc1Cl)Nc1ccc(S(=O)(=O)Nc2ncccn2)cc1 [CBK265490] — higher, 78.2657
- O=C(c1cccc(-c2cncc(-c3ccc(O)cc3)n2)c1)N1CCOCC1 [CBK123796] — higher, 120.483
- O=C1c2ccccc2C(=O)N1CSc1nnc(SCN2C(=O)c3ccccc3C2=O)s1 [CBK263694] — higher, 93.5029
- Cc1cccc(-c2nc3ccc(NC(=O)CCC(=O)O)cc3o2)c1 [CBK269773] — higher, 110.612
- OC1(c2ccccc2)CCN(Cc2ccccc2-n2cccn2)C1 (centres unmarked) [CBK282795] — higher, 75.4657
- O=C(O)COc1ccc(/C=N/n2cnnc2)cc1Cl [CBK263902] — higher, 97.6541
- CC(=O)Nc1ccc(-c2ccc(C(=O)N3CCN(C4CCN(C)CC4)CC3)cn2)cc1 [CBK158824] — higher, 81.4735
- Cc1ccc(CN(C)CC(=O)Nc2cc(C(F)(F)F)ccc2Cl)o1 [CBK306085] — lower, 45.0013
- COc1ccc(CCCC(=O)Nc2cc3cccnc3c(Br)n2)cc1 [CBK119486] — higher, 90.0159
- Cn1nc(-c2ccccc2)cc1[C@H]1CN2CC[C@H]1C[C@@H]2CNC(=O)N1CCOCC1 [CBK289094] — higher, 78.2623
- CCn1cc(-c2cncn2CCCn2ccnc2C(C)C)cn1 [CBK282244] — higher, 97.2537
- COCCn1c(=O)n(Cc2ccccc2)c2cccnc21 [CBK283964] — higher, 103.747
- NC(=O)c1nnc2ccc(Cl)cc2c1N [CBK026161] — higher, 73.162
- CN(C)c1ccc(/C=C/c2noc(-c3ccccc3O)n2)cc1 [CBK268438] — higher, 135.532
- CC(C)C(=O)N1CCC(Cn2nc(-c3ccccc3)ccc2=O)CC1 [CBK284114] — higher, 81.4186
- COC(=O)c1c(NC(=S)Nc2cnccn2)sc2c1CCC(C)C2 (centres unmarked) [CBK266893] — higher, 97.4204
- COc1ccc(OC)c(N/C=C(/C#N)c2nc(-c3cc4c(ccc5ccccc54)oc3=O)cs2)c1 [CBK262991] — higher, 83.5697
- O=C(Nc1cccc(-c2nnco2)c1)C1CCCCC1 [CBK296662] — higher, 104.613
- O=C(O)CCc1nc2nc(-c3ccco3)cc(C(F)(F)F)n2n1 [CBK286889] — higher, 99.8351
- CC(C)c1csc(C2CCN(C(=O)CCc3ccsc3)CC2)n1 [CBK305327] — lower, 14.5323
- Cc1n[nH]c(C)c1CCC(=O)N/N=C/c1cccc(O)c1 [CBK262910] — higher, 115.366
- COc1cccc(NC(=O)C2CCCCC2C(=O)O)c1 (centres unmarked) [CBK262410] — higher, 97.7109
- COCC(C)NC(=O)Cn1c(-c2ccc(F)cc2)cc2cccnc21 (centres unmarked) [CBK284863] — higher, 96.9924
- C/C(=N\NC(=N)N)C(F)(F)F [CBK023019G] — higher, 96.7365
- CC(C)NC(=O)CN1CCC(N(C)Cc2cccc(C(F)(F)F)c2)CC1 [CBK305429] — higher, 97.5215
- Cn1cnnc1SCCNC(=O)N1CCc2sccc2C1 [CBK307385] — lower, 62.8635
- Cc1c(C(=O)O)sc(S(=O)(=O)N2CCN(C(=O)CC(C)c3ccccc3)CC2)c1C(=O)O (centres unmarked) [CBK297143] — higher, 82.9217
- CC(C)COC(=O)CCNc1n[nH]c(=O)[nH]c1=O [CBK293920] — higher, 80.6092
- Cc1nn(C)cc1-c1c(C#N)c(N)nc2c1CN(Cc1ccco1)CC2 [CBK306722] — higher, 90.266
- CC12CN3CC(C)(CN(C1)C3c1ccc(Br)cc1)C2=O (centres unmarked) [CBK261452] — higher, 107.408
- COCCNc1nc(-c2ccccc2CO)cnc1N [CBK063575] — higher, 96.6549
- CCOc1ccc(N2C(=O)CC(NC3CCN(c4ncccn4)CC3)C2=O)cc1 (centres unmarked) [CBK269972] — higher, 105.11
- Cc1cc(C(=O)NC(C)Cn2nc(C)cc2C)c2cccc(C)c2n1 (centres unmarked) [CBK281635] — higher, 96.6541
- CCCNc1cc(C)nc2cc(-c3ccc(OC)c(OC)c3)nn12 [CBK287805] — higher, 97.4013
- OC1(CN2CCCC2)COCCN(c2nnc(-c3ccccc3)s2)C1 (centres unmarked) [CBK306558] — higher, 113.482
- Cc1ccc(C(=O)NCc2ccco2)c(NCc2cccnc2)n1 [CBK076383] — higher, 103.856
- CC(C)c1ccc(N2C(=O)[C@@H]3C[C@@H](NC(=O)c4cccs4)CCN3C2=O)cc1 [CBK289541] — higher, 107.012
- FC(F)(F)c1cccc(-c2nccnc2NCc2cccs2)c1 [CBK037298] — higher, 89.8983
- O=C(CN1C(=O)c2ccccc2C1=O)Nc1cccc2ncccc12 [CBK262761] — higher, 94.527
- Cn1c(CN2CCN(C(=O)c3ccco3)CC2)nc2cc([N+](=O)[O-])ccc21 [CBK268473] — higher, 78.0798
- CC(=O)Nc1ccc(Cc2nc(C3CC3)no2)cc1 [CBK305197] — lower, 51.3032
- COC1C(O)C(CO)OC1n1cc(F)c(=O)[nH]c1=O (centres unmarked) [CBK201253] — higher, 105.481
- NCCc1c[nH]c2ccc(OCC(=O)O)cc12 [CBK265853C] — higher, 119.567
- NC(=O)C1(Cc2ccc(-c3ccccc3)cc2)CCN(C(=O)CCc2ccccc2)CC1 [CBK285772] — lower, 54.8881
- CCOc1ccc(-n2c(SCc3ccc(Br)cc3)nnc2-c2ccncc2)cc1 [CBK266017] — higher, 113.695
- Cc1ccccc1C(=O)NCC(=O)Nc1ccc(Cl)nc1 [CBK091335] — higher, 100.677
- c1ccc2c(CNCc3ccc4c(c3)OCO4)c[nH]c2c1 [CBK262159] — higher, 84.9179
- O=C(CCc1ccccc1)N/N=C/c1cc2c(cc1[N+](=O)[O-])OCO2 [CBK261221] — higher, 82.0672
- Cc1cc(C)n2c(SCC(=O)c3ccccc3)nnc2n1 [CBK265378] — higher, 95.6757
- Cc1nc(CN2CCN(C(=O)C3C4CCCCC43)CC2)cs1 (centres unmarked) [CBK281607] — higher, 107.423
- COc1ccc(C(=O)N/C(=C/c2ccc([N+](=O)[O-])cc2)c2nc3ccc(C(F)(F)F)cc3[nH]2)cc1OC [CBK263199] — higher, 76.0318
- C=CCO[C@@H]1C[C@H]2C(=O)N3CCN(C(=O)NC4CCCCC4)C[C@H]3C(=O)N2C1 [CBK289619] — higher, 109.048
- N#Cc1cccc(C(=O)N2CCCN(Cc3ccc(Cl)cc3)CC2)c1 [CBK305323] — higher, 70.7047
- Cc1ccc(C(O)CN2CCC(O)(c3ccccc3F)CC2)cc1 (centres unmarked) [CBK283310] — higher, 100.004
- O=C(CSCc1c(F)cccc1Cl)NCc1ccccc1Cl [CBK269155] — higher, 100.937
- Cc1ccc(CC(=O)N2CCCC2c2n[nH]cc2-c2ccncc2)cc1 (centres unmarked) [CBK283424] — lower, 51.0564
- Cc1cc(O)cc(=O)n1Cc1ccccn1 [CBK291159] — higher, 96.7571
- CCCC(=O)N1CCCC([C@@H]2C[C@H](C(F)F)n3nc(C)cc3N2)C1 (some centres unmarked) [CBK284721] — higher, 107.808
- Cn1ccnc1Sc1ncccc1C(F)(F)F [CBK093759] — higher, 99.1655
- CC1(C)[C@H](Cc2cc(CN3CCOCC3)on2)C[C@@H]1NC(=O)C1CC1 [CBK289246] — higher, 116.357
- N#CCCCN1CCC2(CC1)OCCc1c2[nH]c2ccc(Br)cc12 [CBK040105] — higher, 74.921
- COc1ccc(-c2nn(CN3CCC(C(N)=O)CC3)c(=S)n2-c2ccccc2)cc1OC [CBK264299] — higher, 111.165
- CCOC(=O)N1CCC(NS(=O)(=O)c2ccc(F)cc2)CC1 [CBK045455] — higher, 122.988
- O=C(Cc1ccc(F)cc1)N1CCC(c2cccc(Cc3ccccc3F)n2)CC1 [CBK286213] — higher, 75.0755
- Cc1cccc(N2C(=O)c3ccc(C(=O)c4ccc5c(c4)C(=O)N(c4cccc(C)n4)C5=O)cc3C2=O)n1 [CBK263069] — higher, 95.889
- Cc1ccc(S(=O)(=O)NC[C@H]2C[C@@H]3CC[N@]2C[C@@H]3CN2CCOCC2)cc1 [CBK288758] — higher, 99.5233
- CC(C)CC(=O)N1CCC(c2nnc3n2CCCCC3)CC1 [CBK284629] — higher, 99.1939
- COc1cncc(C(NC(=O)c2ccn3nnnc3c2)[C@H]2C[C@@H](O)C2)c1 (some centres unmarked) [CBK306686] — lower, 38.0036
- Cc1nn(C)cc1-c1cc(C(=O)Nc2ccccc2C2CC2)on1 [CBK281412] — higher, 107.972
- O=C(Nc1cccc2[nH]ccc12)c1ccoc1 [CBK159659] — higher, 104.136
- O=C(Cc1ccc2c(c1)CCCO2)Nc1c(OCCn2cccn2)ccc2ccccc12 [CBK285679] — higher, 102.048
- CS(=O)(=O)c1ccc(Cn2ccnc(N3CCN(C(=O)Cc4cccs4)CC3)c2=O)cc1 [CBK153773] — higher, 95.0263
- CC(C)C1OC(NCc2ccc(Cl)cc2)=NC1=O (centres unmarked) [CBK070352] — higher, 96.2518
- Cc1nc(N)nc(NCCC2CCCOC2)c1Cl (centres unmarked) [CBK307353] — lower, 31.5607
- O=[N+]([O-])c1cccc(C(Nc2cccnc2)c2cc(Cl)c3cccnc3c2O)c1 (centres unmarked) [CBK268629] — lower, 36.847
- CC(=O)N1CCc2c(sc(NC(=O)c3ccc(C)cc3)c2C#N)C1 [CBK304411] — lower, 5.672
- CSc1ccccc1NC(=O)Cn1c(-c2nonc2N)nc2ccccc21 [CBK266919] — lower, 58.1029
- CCNC(=O)N1CC2(CCN(Cc3csc(C)n3)CC2)c2ccccc21 [CBK126712] — higher, 103.541
- CCCCC(=O)N1CCC2(CC1)CC(=O)c1ccc(OCc3ccccc3)c(C)c1O2 [CBK156493] — higher, 72.1539
